This passage reports binding signal results from paper PMC12820563, “FoxP3 forms a head-to-head dimer in vivo and stabilizes its multimerization on adjacent microsatellites”.

Some of the results follow.

The assay has as its target T1, MBP-FoxP1dN (Mus musculus, UniProt P58462 326-579).
T1 sequence: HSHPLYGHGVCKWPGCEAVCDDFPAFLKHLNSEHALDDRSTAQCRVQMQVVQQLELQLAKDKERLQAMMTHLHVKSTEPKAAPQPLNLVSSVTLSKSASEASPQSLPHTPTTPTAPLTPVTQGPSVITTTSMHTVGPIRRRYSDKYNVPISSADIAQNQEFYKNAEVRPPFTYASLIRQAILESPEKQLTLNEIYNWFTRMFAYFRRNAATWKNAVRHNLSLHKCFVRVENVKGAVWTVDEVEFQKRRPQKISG
Description: PD-seq (MBP pull-down with sequencing); 20 mM Tris-HCl pH 7.5, 100 mM NaCl, 1.5 mM MgCl2, 0.4 uM protein, 0.1 uM dsDNA library, 30 min, room temperature, amylose pull-down; high values mean tight binding. Particulars: protein: recombinant; tags: His6-MBP; chain copies: 2; dsDNA, one strand shown. In short, it runs like this: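 A fragment of mouse FoxP3 or FoxP1 without its N-terminus, carrying a His6-MBP tag and produced in E. coli, was combined at 0.4 µM with a 0.1 µM degenerate double-stranded DNA library filled in with Klenow. The mixture sat for 30 min at room temperature in Tris pH 7.5 buffer containing NaCl and MgCl2. Protein–DNA complexes were captured on amylose resin, washed three times, and the DNA was freed with proteinase K, barcoded by PCR and sequenced on Illumina. Binding is expressed as reads-per-million enrichment of pull-down over input, with replicates pooled.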
On to “GATGATTGTTCTCCCAGCTGATGAATTGCGAAGGTCGAGTAAACAAATTTTCCTAATCTTTCTGTTCAAGCGCCATCTAC”, for which the binding signal is 0.937 RPM ratio (pull-down/input).

Consider “GATGATTGTTCTCCCAGCTGATGAATTGTCCACATCGAGTAAACAAATTTTCCTAATCTTTCTGTTCAAGCGCCATCTAC”, for which the binding signal was 1.33 RPM ratio (pull-down/input).

Regarding “GATGATTGTTCTCCCAGCTGATGAATTCTTCACGTCGAGTAAACAAATTTTCCTAATCTTTCTGTTCAAGCGCCATCTAC”, the binding signal was 0.901 RPM ratio (pull-down/input).

Take “GATGATTGTTCTCCCAGCTGATGAATTAGACCAGTCGAGTAAACAAATTTTCCTAATCTTTCTGTTCAAGCGCCATCTAC”: the binding signal is 0.827 RPM ratio (pull-down/input).

Regarding “GATGATTGTTCTCCCAGCTGATGAATTTCAGCCGTCGAGTAAACAAATTTTCCTAATCTTTCTGTTCAAGCGCCATCTAC”, the binding signal is 0.815 RPM ratio (pull-down/input).

For the sequence “GATGATTGTTCTCCCAGCTGATGAATTGGTGTAATCGAGTAAACAAATTTTCCTAATCTTTCTGTTCAAGCGCCATCTAC”, the binding signal was 1.49 RPM ratio (pull-down/input).

For the sequence “GATGATTGTTCTCCCAGCTGATGAATTACCCAGGTCGAGTAAACAAATTTTCCTAATCTTTCTGTTCAAGCGCCATCTAC”, the binding signal is 0.849 RPM ratio (pull-down/input).

In the case of “GATGATTGTTCTCCCAGCTGATGAATTCGCCACGTCGAGTAAACAAATTTTCCTAATCTTTCTGTTCAAGCGCCATCTAC”, the binding signal was 0.909 RPM ratio (pull-down/input).

For “GATGATTGTTCTCCCAGCTGATGAATTAACCCGCTCGAGTAAACAAATTTTCCTAATCTTTCTGTTCAAGCGCCATCTAC”, the binding signal is 0.814 RPM ratio (pull-down/input).

As to “GATGATTGTTCTCCCAGCTGATGAATTGCTACCTTCGAGTAAACAAATTTTCCTAATCTTTCTGTTCAAGCGCCATCTAC”, the binding signal is 1.07 RPM ratio (pull-down/input).

Turning to “GATGATTGTTCTCCCAGCTGATGAATTTAAAGTGTCGAGTAAACAAATTTTCCTAATCTTTCTGTTCAAGCGCCATCTAC”, the binding signal was 0.935 RPM ratio (pull-down/input).

Regarding “GATGATTGTTCTCCCAGCTGATGAATTAGGGTGCTCGAGTAAACAAATTTTCCTAATCTTTCTGTTCAAGCGCCATCTAC”, the binding signal was 0.798 RPM ratio (pull-down/input).

For “GATGATTGTTCTCCCAGCTGATGAATTGCTACGTTCGAGTAAACAAATTTTCCTAATCTTTCTGTTCAAGCGCCATCTAC”, the binding signal is 1.19 RPM ratio (pull-down/input).

With “GATGATTGTTCTCCCAGCTGATGAATTCCACCATTCGAGTAAACAAATTTTCCTAATCTTTCTGTTCAAGCGCCATCTAC”, the binding signal is 0.908 RPM ratio (pull-down/input).

As for “GATGATTGTTCTCCCAGCTGATGAATTGGGCAGATCGAGTAAACAAATTTTCCTAATCTTTCTGTTCAAGCGCCATCTAC”, the binding signal was 0.83 RPM ratio (pull-down/input).

Turning to “GATGATTGTTCTCCCAGCTGATGAATTGCTCCGCTCGAGTAAACAAATTTTCCTAATCTTTCTGTTCAAGCGCCATCTAC”, the binding signal is 0.917 RPM ratio (pull-down/input).

As to “GATGATTGTTCTCCCAGCTGATGAATTGCTTTCGTCGAGTAAACAAATTTTCCTAATCTTTCTGTTCAAGCGCCATCTAC”, the binding signal is 1.12 RPM ratio (pull-down/input).

“GATGATTGTTCTCCCAGCTGATGAATTAAAAGTGTCGAGTAAACAAATTTTCCTAATCTTTCTGTTCAAGCGCCATCTAC”: the binding signal is 0.971 RPM ratio (pull-down/input).

On to “GATGATTGTTCTCCCAGCTGATGAATTTATAATATCGAGTAAACAAATTTTCCTAATCTTTCTGTTCAAGCGCCATCTAC”, for which the binding signal was 1.31 RPM ratio (pull-down/input).

With “GATGATTGTTCTCCCAGCTGATGAATTCCCGATATCGAGTAAACAAATTTTCCTAATCTTTCTGTTCAAGCGCCATCTAC”, the binding signal was 0.844 RPM ratio (pull-down/input).

Consider “GATGATTGTTCTCCCAGCTGATGAATTCGCGCGATCGAGTAAACAAATTTTCCTAATCTTTCTGTTCAAGCGCCATCTAC”, for which the binding signal was 0.886 RPM ratio (pull-down/input).

In the case of “GATGATTGTTCTCCCAGCTGATGAATTAAGCTACTCGAGTAAACAAATTTTCCTAATCTTTCTGTTCAAGCGCCATCTAC”, the binding signal was 0.917 RPM ratio (pull-down/input).

As for “GATGATTGTTCTCCCAGCTGATGAATTAGGATCATCGAGTAAACAAATTTTCCTAATCTTTCTGTTCAAGCGCCATCTAC”, the binding signal is 0.974 RPM ratio (pull-down/input).

Regarding “GATGATTGTTCTCCCAGCTGATGAATTTTTACCGTCGAGTAAACAAATTTTCCTAATCTTTCTGTTCAAGCGCCATCTAC”, the binding signal was 0.917 RPM ratio (pull-down/input).

On to “GATGATTGTTCTCCCAGCTGATGAATTGATCCGATCGAGTAAACAAATTTTCCTAATCTTTCTGTTCAAGCGCCATCTAC”, for which the binding signal is 0.857 RPM ratio (pull-down/input).

Regarding “GATGATTGTTCTCCCAGCTGATGAATTGTGATGTTCGAGTAAACAAATTTTCCTAATCTTTCTGTTCAAGCGCCATCTAC”, the binding signal is 1.59 RPM ratio (pull-down/input).

As for “GATGATTGTTCTCCCAGCTGATGAATTAGGATATTCGAGTAAACAAATTTTCCTAATCTTTCTGTTCAAGCGCCATCTAC”, the binding signal was 0.917 RPM ratio (pull-down/input).

Take “GATGATTGTTCTCCCAGCTGATGAATTACTCAATTCGAGTAAACAAATTTTCCTAATCTTTCTGTTCAAGCGCCATCTAC”: the binding signal is 1.25 RPM ratio (pull-down/input).

As to “GATGATTGTTCTCCCAGCTGATGAATTATTAGCGTCGAGTAAACAAATTTTCCTAATCTTTCTGTTCAAGCGCCATCTAC”, the binding signal was 1.28 RPM ratio (pull-down/input).

On to “GATGATTGTTCTCCCAGCTGATGAATTTCCCGTATCGAGTAAACAAATTTTCCTAATCTTTCTGTTCAAGCGCCATCTAC”, for which the binding signal is 0.953 RPM ratio (pull-down/input).

For the sequence “GATGATTGTTCTCCCAGCTGATGAATTACAAATATCGAGTAAACAAATTTTCCTAATCTTTCTGTTCAAGCGCCATCTAC”, the binding signal is 2.21 RPM ratio (pull-down/input).

For the sequence “GATGATTGTTCTCCCAGCTGATGAATTTACCGACTCGAGTAAACAAATTTTCCTAATCTTTCTGTTCAAGCGCCATCTAC”, the binding signal is 1.08 RPM ratio (pull-down/input).
